In PubChem BioAssay (NCI):
Where a structure was tested more than once in an assay, its records may differ in their call.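 The endpoint reported here, percent growth, reads 100 for growth as untreated, 0 for no net growth and -100 for all cells dead.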 The source holds more than one record for some entries. Only these are listed. Rule for the calls: active = growth percent below 10; inactive = the rest. There may be further records. The screen tested this drug many times, at the concentration stated with the values; one value stands for one run. Counts like (3×) say how often a value occurs here.

System: K-562 leukemia
Assay: NCI-60 one-dose screen, 48 h (100 = growth as untreated, 0 = no growth, -100 = all killed)

## COc1cccc2c1C(=O)c1c(O)c3c(c(O)c1C2=O)C[C@@](O)(C(=O)CO)C[C@@H]3OC1CC(N)C(O)C(C)O1 (stereo not given in full)
0.25 µM, runs of 2009
  growth: inactive: 30, 31.7, 35.1, 44.7, 29, 56.9, 58.5, 34.3, 34.5 (2×), 39.7, 39.9, 32.6, 27.3, 53.1 (2×), 43.6, 22.4, 65.7, 56, 46.5 (3×), 41.2, 42.7, 37.2 (2×), 43.4, 28.9, 51.5, 56.5, 51, 50, 51.7 (2×), 39.4, 44.3, 37.7 (2×), 51.1, 19.2, 41.4, 45, 36.6, 41.3, 37.1, 35.5, 36.8, 31.5, 31.1, 45.6 (2×), 36.3, 16.4, 38.2, 30.4, 39.6, 42.9, 66.1, 52.2, 70.5, 40.1, 50.7, 47.6%
0.25 µM, runs of 2010
  growth: inactive: 50.6, 60.7, 47.2, 48, 44.9, 44.8, 58.3, 43 (2×), 65.5, 49.2, 37.1, 47.3, 49.5, 41.9, 47, 41.2 (2×), 40.3, 44.2, 49.1, 27.3, 36.2 (2×), 39 (2×), 33.2 (2×), 34.5, 37.8 (2×), 35.3, 33.4, 42.5, 38.2, 36.9, 67, 45.2, 35.1, 44.5 (2×), 31.9, 33.5, 36.1, 27.1, 53.5, 47.8, 36.6, 42.2, 35.2, 39.2, 40.2, 33.6%
0.25 µM, runs of 2011
  growth: inactive: 42.5, 32.7, 37.5 (2×), 44, 41.7, 53, 42.4, 32.6, 37.7, 37.3, 48.7, 48, 38.5, 46.9 (2×), 63.1, 49.1, 55.2, 52.6, 50.6, 46.4, 39.4, 88.6, 37.9, 18.6, 36.6, 26.3, 31.9, 21, 28, 34.4, 26.4, 47.8, 48.6, 52.2, 38.9, 37.1, 41.4, 30%
0.25 µM, runs of 2012
  growth: inactive: 54.6, 32.3, 48.2 (2×), 27.5, 46.1, 36.8, 43.7 (2×), 41.1, 30.8, 29.8, 32.2, 41.4, 21.5, 54, 32.1, 38.6, 34.6 (2×), 33.2, 27.4, 30.1, 33.5, 40.3, 39.4, 36, 40.8 (2×), 46.4, 48.3, 38.2, 36.7, 43.4, 38.5, 43.9, 42.2, 41.8, 58.3, 35.4, 37.3, 20.3, 39, 43.8 (2×), 69.6, 27, 39.9, 35.8, 52.9, 46.5, 44.9, 55.1, 56.7, 51, 50, 59.6, 30.5, 36.2, 23.8, 19.1, 29.4, 21 (2×), 31.6, 29.3, 41.2, 28.4, 18.4% and active: -6.85%
0.25 µM, runs of 2013
  growth: inactive: 30.8, 23, 22.3, 29.9, 38.5 (2×), 41.6 (2×), 41.4, 43.2, 28.8, 37.3, 38.1, 31.7, 52.6, 51.1 (2×), 43 (2×), 49.4, 45.9, 27.4, 41.2 (2×), 40.3 (2×), 32.8, 55.2, 44.2 (2×), 36.8, 28.9, 46.1, 23.4, 48.4, 47.4, 50.3 (2×), 40.8, 64.6, 59, 34.3, 54.9, 39.8, 30.1, 39.5 (2×), 33.2 (2×), 27.8, 23.1, 19.9, 64.2, 56.9, 22.7, 47.3, 52.5, 47.8, 29.8, 21.5, 44.5, 28.7, 51.6, 54, 16.6, 41.7, 41, 20, 28.4, 27.1, 26.2, 24.8%
0.25 µM, runs of 2014
  growth: inactive: 28.2, 20.4, 29.1, 15.9, 38.3, 17.5, 38.9, 41.5 (2×), 36.7, 25.2, 16.7, 47.5 (2×), 32.2, 52.7, 21.2, 45.3, 58.2, 28.9, 58.8, 32.4, 51.7, 44.6, 41.4, 56.4, 49.3, 50.4, 42.4, 42.7, 46.9, 48, 46.6, 43.4, 39.4, 50.7, 48.4, 47.9, 60.4, 59, 51.6, 47.6, 53.4, 48.2, 38.5, 41 (2×), 42.9, 46.2, 47, 47.4, 32.3, 38.4, 39.6, 41.6, 33.9, 38.8, 40.3, 33.4 (2×), 39.8, 41.9, 38.7, 32.6 (2×), 43, 44.5, 45.9, 34.4, 39.5%
0.25 µM, runs of 2015
  growth: inactive: 51.8, 36.7, 35.8, 28.6, 25.5, 36 (2×), 36.4, 48.9, 32.2, 30.7, 47.4 (2×), 54.9, 26.3, 29.9, 33.1, 35.5, 26.4, 28.4, 48.6, 52.5, 44.7 (2×), 58, 51.6, 50.4, 48.7, 44.5, 54 (2×), 31.2, 29.2, 44.3, 44.4, 30.4, 44, 36.3, 37.2, 46.5, 48.4, 29.4, 44.8, 36.8, 45.6, 41.6, 67, 38.5 (2×), 42.7 (2×), 43.6, 39.9, 37.7, 41.7, 59.7, 37.3, 29.5, 32.9 (2×), 33.9 (2×), 39.7, 33.4, 37.5, 38.9, 39, 36.1 (2×), 40.7, 42.6, 55.7, 59, 44.1, 30.3, 31.6, 42.9, 35.2, 35.9, 47%
0.25 µM, runs of 2016
  growth: inactive: 48.9, 51.6 (2×), 44.7, 46.3, 42.6, 32.7, 26.7, 26.2, 55.8, 45.6, 51, 43.4, 49.2, 44.5, 47, 29.8, 35.4, 30, 40.1, 35.2 (2×), 33.4, 34, 33 (2×), 37.7, 34.2 (2×), 31.9, 31.7, 27.5, 34.6, 31.6, 34.8, 36.9, 43.2, 47.1, 50.9, 49.3, 39, 46.9, 39.9, 44.6, 43.7, 45.4, 45.2, 42.5, 44.9, 41.3, 39.8, 48.1, 42.1, 47.6, 46.6, 47.8, 47.2, 43.6, 55, 56.3, 55.2, 53.8, 46.1, 52.4, 35.3, 38.5, 47.4, 57.5, 60.8, 41.5, 40.2, 38.9, 41.7, 40.5, 48.5, 51.4, 39.7, 39.4%
0.25 µM, runs of 2017
  growth: inactive: 43.8, 43.2, 42.6, 35.5 (2×), 34.8 (3×), 32.5, 32.8 (2×), 31.4 (2×), 35.1, 31.2, 29.1, 33.8 (2×), 29.5, 33.6, 38.8, 24.1, 27.3 (3×), 30.5 (2×), 28.9, 38.2, 37.1, 31.5 (2×), 38.1, 33.5, 32.7, 28.7 (2×), 45, 33.1, 31.7 (2×), 35.2, 39.6, 30.4 (2×), 33.7, 27 (2×), 35.3, 33.4, 37.7, 18.4, 23.8, 34, 44, 34.1 (2×), 25.6, 35.4, 25.8, 31.9 (2×), 26, 30.2, 29, 32.3, 27.8, 36.7, 23.7, 31.1, 35.8 (2×), 32.2, 30.3, 44.8, 34.7, 34.2, 28.2%
0.25 µM, runs of 2018
  growth: inactive: 39.4 (2×), 41.8, 36.3 (2×), 35.8, 33.5, 33 (2×), 31.6, 25.4, 36.8, 35.6 (3×), 35.4, 38.6 (2×), 39.8, 44, 37.5, 41.5, 37.8, 32.5, 41, 40.7, 43.4 (2×), 39.7, 32, 34.5, 37.2, 37.3, 42.6, 44.1, 40.5, 41.9, 36.4, 31.4, 32.4, 33.6 (2×), 38.2, 38.9, 15.7, 22.8%
0.25 µM, runs of 2019
  growth: inactive: 25.8, 21.7 (2×), 24.8, 20.5, 26.2, 25, 30.5, 33.5, 29.8, 28.5 (3×), 25.7, 23.6 (2×), 27.7, 27.2, 32.5, 31.3 (2×), 33.2, 28.3, 31.9, 36.6, 31, 41.5, 30.7, 48, 39, 41, 44.5, 47.2, 28.2 (2×), 26.3, 25.4 (3×), 28.8 (2×), 25.6 (3×), 25.1, 26.1, 26, 27.9, 28, 30.3, 29.3, 27, 33.4%
0.25 µM, runs of 2020
  growth: inactive: 19.8, 23.1, 31.1, 32.8, 27.8, 31.7, 36, 37.1, 36.1 (2×), 34.4, 38.1, 28.3, 29.1, 33.8, 29.2, 38.9, 33.1, 30 (2×), 41.2, 38.7, 41.1, 36.2, 39.6, 40.4%
0.25 µM, runs of 2021
  growth: inactive: 37.1, 43.9, 33.5 (2×), 37.9, 43, 38.5, 38.3, 36.9, 40.2, 33.7, 33.3, 38.1 (3×), 31.2, 34.4, 33.2, 40.7, 33.1, 27.4, 27.8, 28.5, 35.5, 30.8, 32.4, 26.4, 28.4 (2×), 24.1, 27.1, 26.6, 34.6, 33.4 (2×), 41, 31.3, 32.6, 33, 28.8, 36.6 (2×), 36.7, 34.7, 40.4, 25 (2×), 28.1, 30.3, 24.9, 31.9, 22.6, 22.8, 32.5, 32.7%
0.25 µM, runs of 2022
  growth: inactive: 31.9, 48.5, 20.9, 26.2, 31.4 (2×), 41.5, 35.3, 37.8, 33.9, 34.6, 33.3, 32.1, 22, 46.9, 64.9, 58.2, 52.6, 74.7, 28.4, 29.2, 34.3, 32.8% and active: -3.36%
25 µM, runs of 1991
  growth: active: -26.8, -3.66, -4.57, 1.96, -46.6, -31.7, -38, -3.33, 0.164, -25.8, -27.3, 2.52, -27.9, -19.2% and inactive: 18.9, 22.8, 16.1, 18.3%
